According to the antibiotic and cytotoxicity screens of Wong et al. (2023):
Some of the results follow.

tested on: HSkMC (human skeletal muscle cells); test: cytotoxicity call (relative viability < 0.9); settings: 10 µM

SMILES	cytotoxicity call
COc1ccc(S(=O)(=O)Nc2ccc3c(c2)C(=O)N([C@H](C)CO)C[C@H](C)[C@H](CN(C)C(=O)NC2CCCCC2)OCCCC[C@H](C)O3)cc1	inactive
C[C@H]1CN([C@@H](C)CO)C(=O)c2cccc(NC(=O)c3ccc(-c4nccs4)cc3)c2O[C@@H]1CN(C)Cc1ccc(C(=O)O)cc1	inactive
O=C(NC1CCC1)[C@@H]1[C@@H](CO)[C@@H]2Cn3c(cccc3=O)[C@@H]2N1CC1CCOCC1	inactive
CCCCC[C@H](O)/C=C/[C@@H]1[C@H]2C/C(=C/CCCC(=O)O)O[C@@H]2C[C@H]1O	inactive
C[C@@H]1CCCCO[C@@H](CN(C)C(=O)Nc2cccc3ccccc23)[C@@H](C)CN([C@@H](C)CO)C(=O)c2cc(NC(=O)Nc3ccc(C(F)(F)F)cc3)ccc2O1	active
Cc1noc(C)c1S(=O)(=O)Nc1ccc2c(c1)C(=O)N([C@H](C)CO)C[C@H](C)[C@@H](CN(C)S(=O)(=O)c1ccccc1)O2	inactive
C[C@@H](O)[C@@H](O)[C@H]1CNc2[nH]c(N)nc(=O)c2N1	inactive
COCCOC(=O)N1C(=O)[C@@]2(c3ccccc31)[C@H](c1ccc(O)cc1)N1[C@H](c3ccccc3)[C@H](c3ccccc3)OC(=O)[C@H]1[C@@H]2C(=O)N1CCc2cc(OC)c(OC)cc2C1	inactive
C[C@H](CO)N1C[C@H](C)[C@@H](CN(C)S(=O)(=O)c2ccc(Cl)cc2)Oc2c(cccc2N(C)C)C1=O	inactive
C[C@H](CO)N1C[C@H](C)[C@H](CN(C)C(=O)Nc2ccc(F)cc2)Oc2ccc(NC(=O)Nc3ccc(C(F)(F)F)cc3)cc2C1=O	inactive
C[C@H](CO)N1C[C@H](C)[C@H](CN(C)S(=O)(=O)c2cccs2)Oc2ccc(NS(C)(=O)=O)cc2C1=O	inactive
COc1cc2c(cc1OC)CN(C(=O)[C@H]1[C@@H]3C(=O)O[C@@H](c4ccccc4)[C@@H](c4ccccc4)N3[C@@H](c3ccccc3OCCO)[C@]13C(=O)Nc1ccc(C#CC4=CCCCC4)cc13)CC2	inactive
O=C(C[C@@H]1C[C@@H]2c3cc(NC(=O)Cc4ccncc4)ccc3O[C@@H]2[C@H](CO)O1)NCCc1ccccc1	inactive
Cc1noc(C)c1NC(=O)Nc1cccc2c1O[C@H](CN(C)Cc1ccc(C(F)(F)F)cc1)[C@H](C)CN([C@@H](C)CO)C2=O	inactive
COc1cccc(NC(=O)C[C@@H]2CC[C@H]3[C@H](COc4ccc(NC(=O)C5CCOCC5)cc4C(=O)N3C)O2)c1	inactive
C[C@H]1CN([C@@H](C)CO)C(=O)c2cc(NC(=O)Nc3ccc(C(F)(F)F)cc3)ccc2O[C@@H]1CN(C)S(=O)(=O)c1ccc(Cl)cc1	inactive
NCc1ccc(C(N)=O)cc1	inactive
CCC(=O)N[C@H]1C=C[C@@H](CC(=O)OC)O[C@@H]1CO	inactive
COc1oc(C(=O)NC2CCCCC2)c(-c2ccc(Cl)cc2)c1S(=O)(=O)c1ccc(Br)cc1	inactive
CO[C@H]1CN(C)C(=O)c2cc(NC(=O)Nc3ccccc3F)ccc2OC[C@H](C)N(Cc2ccccc2C(=O)O)C[C@@H]1C	inactive
CCOc1nc(N)cc(N)c1C#N	inactive
COc1ccc(S(=O)(=O)N[C@H]2C=C[C@H](CC(=O)N3CCC(Cc4ccccc4)CC3)O[C@@H]2CO)cc1	inactive
C[C@H](CO)N1C[C@H](C)[C@H](CN(C)Cc2ccc(-c3ccccc3)cc2)Oc2c(NS(=O)(=O)c3ccc(Cl)cc3)cccc2C1=O	inactive
COc1ccc(NC(=O)Nc2ccc3c(c2)CC(=O)N([C@@H](C)CO)C[C@@H](C)[C@H](CN(C)Cc2ccc(-c4ccccc4)cc2)O3)cc1	inactive
OC[C@@H](O)[C@@H](O)[C@@H](O)CO	inactive
Cc1ccc(S(=O)(=O)Nc2ccc3c(c2)C(=O)N([C@H](C)CO)C[C@@H](C)[C@H](CN(C)C(=O)C2CCCCC2)OCCCC[C@H](C)O3)cc1	inactive
C[C@H](CO)N1C[C@H](C)[C@H](CN(C)S(=O)(=O)c2ccccc2)OCCCC[C@H](C)Oc2ccc(NC(=O)Nc3ccc4c(c3)OCO4)cc2C1=O	inactive
COc1ccc2c3c([nH]c2c1)[C@@H](CO)N(C[C@]13CCN(CC1)C(=O)c1ccccc1F)C(=O)Nc1ccccc1F	inactive
C[C@@H]1CN([C@@H](C)CO)C(=O)c2cc(-c3ccc(C(=O)N(C)C)cc3)cnc2O[C@H]1CN(C)C(=O)CN(C)C	inactive
